# Scores whose standard error is large were omitted. The source holds two more conditions with little spread; they are left out. Names with del lack the residues named; names with ins carry added residues between the positions named. For some assays here: The data file names ogerin without a concentration.
# B1: GPR68, Q15743 (parent)
# chain: MGNITADNSSMSCTIDHTIHQTLAPVVYVTVLVVGFPANCLSLYFGYLQIKARNELGVYLCNLTVADLFYICSLPFWLQYVLQHDNWSHGDLSCQVCGILLYENIYISVGFLCCISVDRYLAVAHPFRFHQFRTLKAAVGVSVVIWAKELLTSIYFLMHEEVIEDENQHRVCFEHYPIQAWQRAINYYRFLVGFLFPICLLLASYQGILRAVRRSHGTQKSRKDQIQRLVLSTVVIFLACFLPYHVLLLVRSVWEASCDFAKGVFNAYHFSLLLTSFNCVADPVLYCFVSETTHRDLARLRGACLAFLTCSRTGRAREAYPLGAPEASGKSGAQGEEPELLTKLHPAFQTPNSPGSGGFPTGRLA
# How the values were obtained:
# [1] = variants of: B1; assay: cAMP reporter score (Enrich2 score, wild type = 0); higher = more signal; HEK293T, FACS bins
# [2] = variants of: B1; assay: surface expression score (Enrich2 score, wild type = 0); higher = more signal; HEK293T, FACS bins
Variant,cAMP reporter score ([1]; pH 5.5),cAMP reporter score ([1]; pH 6),"cAMP reporter score ([1]; pH 6, modulator: ogerin)","cAMP reporter score ([1]; pH 6.5, modulator: ogerin)",surface expression score [2]
V280L,-0.373,-0.003,-0.066,-0.796,0.861
V280M,-0.565,-1.21,-1.11,-1.3,-0.551
V280N,-0.271,-1.09,-1.56,-1.15,-1.54
V280P,-1.34,-0.568,-1.49,-0.87,-1.97
V280Q,-1.06,-0.131,-1.5,-1.03,-2.23
V280R,-0.831,–,-1.4,-0.578,-2.76
V280S,-0.935,-0.68,-1.59,-0.689,-2.42
V280T,-1.43,-1.18,-1.44,-1.59,-2.14
V280W,-1.74,-0.479,-2.04,-1.31,-2.37
V280Y,-0.466,-0.094,-1.73,-1.27,-1.78
V280_A281insG,-1.46,-1.06,-1.64,-1.8,-3.46
V280_A281insGSG,-1.06,-1.21,-0.742,-1.04,-2.18
A281C,-0.094,-0.647,0.476,-0.464,1.05
A281D,-1.13,-0.584,-1.07,-0.835,-1.58
A281E,-1.45,-1.06,-2.37,-1.58,-2.26
A281F,-0.227,-0.534,-0.878,-0.819,0.365

Variant,cAMP reporter score ([1]; pH 5.5),cAMP reporter score ([1]; pH 6),"cAMP reporter score ([1]; pH 6, modulator: ogerin)","cAMP reporter score ([1]; pH 6.5, modulator: ogerin)",surface expression score [2]
A281G,-1.27,-0.983,-1.41,-1.14,-1.01
A281H,-0.41,0.943,–,–,–
A281K,-1.51,-1.38,-1.49,-0.964,-1.13
A281L,-0.005,-1.43,-0.377,-1.13,2.57
A281M,-0.435,–,-0.563,-0.989,-0.255
A281N,-1.04,-0.185,-1.38,-1.19,-3.58
A281P,-0.816,0.443,-0.458,-0.902,-2.62
A281Q,-1.29,-1.39,-1.98,-1.47,-2.19
A281R,-1.74,-1.17,-0.311,-1.63,-3.5
A281S,0.715,-1.47,-0.179,-1.02,–
A281T,0.557,-0.246,0.106,-0.989,-0.873
A281V,-1.86,-1.36,-1.52,-0.733,0.263
A281W,0.01,0.8,0.353,1.46,0.048
A281Y,-0.872,-1.17,-0.878,-0.564,-1.9
A281_D282insGSG,-1.76,-1.57,-1.38,-1.66,-1.4
